# Source: the supplement of paper PMC8728848
# Some of the results follow.
# B1: mLPHN-1 (Mus musculus), Q80TR1 (protein)
# chain: MARLAAALWSLCVTTVLVTSATQGLSRAGLPFGLMRRELACEGYPIELRCPGSDVIMVENANYGRTDDKICDADPFQMENVQCYLPDAFKIMSQRCNNRTQCVVVAGSDAFPDPCPGTYKYLEVQYDCVPYIFVCPGTLQKVLEPTSTHESEHQSGAWCKDPLQAGDRIYVMPWIPYRTDTLTEYASWEDYVAARHTTTYRLPNRVDGTGFVVYDGAVFYNKERTRNIVKYDLRTRIKSGETVINTANYHDTSPYRWGGKTDIDLAVDENGLWVIYATEGNNGRLVVSQLNPYTLRFEGTWETGYDKRSASNAFMVCGVLYVLRSVYVDDDSEAAGNRVDYAFNTNANREEPVSLAFPNPYQFVSSVDYNPRDNQLYVWNNYFVVRYSLEFGPPDPSAGPATSPPLSTTTTARPTPLTSTASPAATTPLRRAPLTTHPVGAINQLGPDLPPATAPAPSTRRPPAPNLHVSPELFCEPREVRRVQWPATQQGMLVERPCPKGTRGIASFQCLPALGLWNPRGPDLSNCTSPWVNQVAQKIKSGENAANIASELARHTRGSIYAGDVSSSVKLMEQLLDILDAQLQALRPIERESAGKNYNKMHKRERTCKDYIKAVVETVDNLLRPEALESWKDMNATEQVHTATMLLDVLEEGAFLLADNVREPARFLAAKQNVVLEVTVLNTEGQVQELVFPQEYPSENSIQLSANTIKQNSRNGVVKVVFILYNNLGLFLSTENATVKLAGEAGTGGPGGASLVVNSQVIAASINKESSRVFLMDPVIFTVAHLEAKNHFNANCSFWNYSERSMLGYWSTQGCRLVESNKTHTTCACSHLTNFAVLMAHREIYQGRINELLLSVITWVGIVISLVCLAICISTFCFLRGLQTDRNTIHKNLCINLFLAELLFLVGIDKTQYEVACPIFAGLLHYFFLAAFSWLCLEGVHLYLLLVEVFESEYSRTKYYYLGGYCFPALVVGIAAAIDYRSYGTEKACWLRVDNYFIWSFIGPVSFVIVVNLVFLMVTLHKMIRSSSVLKPDSSRLDNIKSWALGAIALLFLLGLTWAFGLLFINKESVVMAYLFTTFNAFQGVFIFVFHCALQKKVHKEYSKCLRHSYCCIRSPPGGTHGSLKTSAMRSNTRYYTGTQSRIRRMWNDTVRKQTESSFMAGDINSTPTLNRGTMGNHLLTNPVLQPRGGTSPYNTLIAESVGFNPSSPPVFNSPGSYREPKHPLGGREACGMDTLPLNGNFNNSYSLRSGDFPPGDGGPEPPRGRNLADAAAFEKMIISELVHNNLRGASGGAKGPPPEPPVPPVPGVSEDEAGGPGSADRAEIELLYKALEEPLLLPRAQSVLYQSDLDESESCTAEDGATSRPLSSPPGRDSLYASGANLRDSPSYPDSSPEGPNEALPPPPPAPPGPPEIYYTSRPPALVARNPLQGYYQVRRPSHEGYLAAPSLEGPGPDGDGQMQLVTSL
# Columns and labels:
# Test in all cases: glycan array binding signal (z-score within array); higher = stronger binding
# Conditions in all cases: glycan notation: IUPAC condensed, linker removed
# GlcNAc(b1-3)Gal(b1-4)Glc = target: GlcNAc(b1-3)Gal(b1-4)Glc
# How it was run: (§1)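 Glycan array data came from 3228 arrays in the Consortium for Functional Glycomics database, and only arrays with an available protein sequence were kept. Glycan names were put into IUPAC-condensed notation, and columns mapping to the same glycan were averaged. The binding signal is a within-array Z-score, averaged across arrays of one protein sequence run at different concentrations or buffers and across linkers. A negative Z-score can be read as non-binding.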
# [1] = target: GlcNAc(b1-3)Gal(b1-4)GlcNAc
# How it was run: as §1
# [2] = target: GlcNAc(b1-3)Gal(b1-4)GlcNAc(b1-3)Gal(b1-4)GlcNAc
# How it was run: as §1
# GlcNAc(b1-3)GalNAc = target: GlcNAc(b1-3)GalNAc
# How it was run: as §1
# GlcNAc(b1-3)Man = target: GlcNAc(b1-3)Man
# How it was run: as §1
# [3] = target: GlcNAc(b1-3)[GlcNAc(b1-4)][GlcNAc(b1-6)]GlcNAc
# How it was run: as §1
# [4] = target: GlcNAc(b1-3)[GlcNAc(b1-6)]Gal(b1-4)GlcNAc
# How it was run: as §1
# [5] = target: GlcNAc(b1-3)[GlcNAc(b1-6)]GalNAc
# How it was run: as §1
# [6] = target: GlcNAc(b1-4)Gal(b1-4)GlcNAc
# How it was run: as §1
# GlcNAc(b1-4)GlcNAc = target: GlcNAc(b1-4)GlcNAc
# How it was run: as §1
# [7] = target: GlcNAc(b1-4)GlcNAc(b1-4)GlcNAc
# How it was run: as §1
# [8] = target: GlcNAc(b1-4)GlcNAc(b1-4)GlcNAc(b1-4)GlcNAc(b1-4)GlcNAc
# How it was run: as §1
# [9] = target: GlcNAc(b1-4)GlcNAc(b1-4)GlcNAc(b1-4)GlcNAc(b1-4)GlcNAc(b1-4)GlcNAc
# How it was run: as §1
# [10] = target: GlcNAc(b1-4)[GlcNAc(b1-6)]GalNAc
# How it was run: as §1
# [11] = target: GlcNAc(b1-6)Gal(b1-4)GlcNAc
# How it was run: as §1
# GlcNAc(b1-6)GalNAc = target: GlcNAc(b1-6)GalNAc
# How it was run: as §1
# GlcNAc3Prop(b1-4)GlcNAc = target: GlcNAc3Prop(b1-4)GlcNAc
# How it was run: as §1
# Kdn(a2-3)Gal(b1-3)GlcNAc = target: Kdn(a2-3)Gal(b1-3)GlcNAc
# How it was run: as §1
# Kdn(a2-3)Gal(b1-4)GlcNAc = target: Kdn(a2-3)Gal(b1-4)GlcNAc
# How it was run: as §1
# [12] = target: Man(a1-2)Man(a1-2)Man(a1-3)Man
# How it was run: as §1
# [13] = target: Man(a1-2)Man(a1-2)Man(a1-6)[Man(a1-3)]Man
# How it was run: as §1
# Man(a1-2)Man(a1-3)Man = target: Man(a1-2)Man(a1-3)Man
# How it was run: as §1
# [14] = target: Man(a1-2)Man(a1-3)[Man(a1-2)Man(a1-6)]Man
# How it was run: as §1
# [15] = target: Man(a1-2)Man(a1-3)[Man(a1-2)Man(a1-6)]Man(a1-6)[Man(a1-2)Man(a1-2)Man(a1-3)]Man
# How it was run: as §1
# [16] = target: Man(a1-2)Man(a1-3)[Man(a1-2)Man(a1-6)]Man(a1-6)[Man(a1-2)Man(a1-2)Man(a1-3)]Man(b1-4)GlcNAc(b1-4)GlcNAc
# How it was run: as §1
# [17] = target: Man(a1-2)Man(a1-3)[Man(a1-6)]Man(a1-6)[Man(a1-2)Man(a1-3)]Man(b1-4)GlcNAc(b1-4)GlcNAc
# How it was run: as §1
# [18] = target: Man(a1-2)Man(a1-6)[Man(a1-3)]Man(a1-6)[Man(a1-2)Man(a1-2)Man(a1-3)]Man
# How it was run: as §1
# [19] = target: Man(a1-2)Man(a1-6)[Man(a1-3)]Man(a1-6)[Man(a1-2)Man(a1-2)Man(a1-3)]Man(b1-4)GlcNAc(b1-4)GlcNAc
# How it was run: as §1
# Man(a1-3)[Man(a1-6)]Man = target: Man(a1-3)[Man(a1-6)]Man
# How it was run: as §1
# [20] = target: Man(a1-3)[Man(a1-6)]Man(a1-6)[Man(a1-2)Man(a1-3)]Man(b1-4)GlcNAc(b1-4)GlcNAc
# How it was run: as §1
# [21] = target: Man(a1-3)[Man(a1-6)]Man(a1-6)[Man(a1-3)]Man
# How it was run: as §1
# [22] = target: Man(a1-3)[Man(a1-6)]Man(a1-6)[Man(a1-3)]Man(b1-4)GlcNAc(b1-4)GlcNAc
# How it was run: as §1
# [23] = target: Man(a1-3)[Man(a1-6)]Man(b1-4)GlcNAc(b1-4)GlcNAc
# How it was run: as §1
# Man(a1-6)Man = target: Man(a1-6)Man
# How it was run: as §1
# Man(b1-4)GlcNAc = target: Man(b1-4)GlcNAc
# How it was run: as §1
# Neu5Ac(a2-3)Gal = target: Neu5Ac(a2-3)Gal
# How it was run: as §1
# [24] = target: Neu5Ac(a2-3)Gal(b1-3)GalNAc
# How it was run: as §1
# [25] = target: Neu5Ac(a2-3)Gal(b1-3)GalNAc(b1-3)Gal(a1-4)Gal(b1-4)Glc
# How it was run: as §1
# [26] = target: Neu5Ac(a2-3)Gal(b1-3)GalNAc(b1-3)Gal(b1-4)GlcNAc
# How it was run: as §1
# [27] = target: Neu5Ac(a2-3)Gal(b1-3)GalNAc(b1-4)[Neu5Ac(a2-3)]Gal(b1-4)Glc
# How it was run: as §1
# [28] = target: Neu5Ac(a2-3)Gal(b1-3)GalNAc6S
# How it was run: as §1
# [29] = target: Neu5Ac(a2-3)Gal(b1-3)GlcNAc
# How it was run: as §1
# [30] = target: Neu5Ac(a2-3)Gal(b1-3)GlcNAc(b1-3)Gal(b1-3)GlcNAc
# How it was run: as §1
# [31] = target: Neu5Ac(a2-3)Gal(b1-3)GlcNAc6S
# How it was run: as §1
# [32] = target: Neu5Ac(a2-3)Gal(b1-3)[Fuc(a1-4)]GlcNAc
# How it was run: as §1
binder,measurement,setting,value
B1,glycan array binding signal (z-score),GlcNAc(b1-3)Gal(b1-4)Glc,-0.511
same,glycan array binding signal (z-score),[1],-0.133
same,glycan array binding signal (z-score),[2],-0.092
same,glycan array binding signal (z-score),GlcNAc(b1-3)GalNAc,-0.105
same,glycan array binding signal (z-score),GlcNAc(b1-3)Man,-0.07
same,glycan array binding signal (z-score),[3],-0.101
same,glycan array binding signal (z-score),[4],-0.059
same,glycan array binding signal (z-score),[5],-0.243
same,glycan array binding signal (z-score),[6],-0.419
same,glycan array binding signal (z-score),GlcNAc(b1-4)GlcNAc,-0.282
same,glycan array binding signal (z-score),[7],1.08
same,glycan array binding signal (z-score),[8],0.092
same,glycan array binding signal (z-score),[9],-0.216
same,glycan array binding signal (z-score),[10],0.911
same,glycan array binding signal (z-score),[11],-0.209
same,glycan array binding signal (z-score),GlcNAc(b1-6)GalNAc,-0.462
same,glycan array binding signal (z-score),GlcNAc3Prop(b1-4)GlcNAc,-0.326
same,glycan array binding signal (z-score),Kdn(a2-3)Gal(b1-3)GlcNAc,-0.263
same,glycan array binding signal (z-score),Kdn(a2-3)Gal(b1-4)GlcNAc,-0.338
same,glycan array binding signal (z-score),[12],-0.045
same,glycan array binding signal (z-score),[13],-0.024
same,glycan array binding signal (z-score),Man(a1-2)Man(a1-3)Man,-0.173
same,glycan array binding signal (z-score),[14],-0.476
same,glycan array binding signal (z-score),[15],-0.336
same,glycan array binding signal (z-score),[16],0.551
same,glycan array binding signal (z-score),[17],-0.424
same,glycan array binding signal (z-score),[18],-0.279
same,glycan array binding signal (z-score),[19],-0.101
same,glycan array binding signal (z-score),Man(a1-3)[Man(a1-6)]Man,-0.232
same,glycan array binding signal (z-score),[20],-0.233
same,glycan array binding signal (z-score),[21],-0.429
same,glycan array binding signal (z-score),[22],-0.345
same,glycan array binding signal (z-score),[23],-0.51
same,glycan array binding signal (z-score),Man(a1-6)Man,-0.5
same,glycan array binding signal (z-score),Man(b1-4)GlcNAc,-0.414
same,glycan array binding signal (z-score),Neu5Ac(a2-3)Gal,-0.076
same,glycan array binding signal (z-score),[24],-0.256
same,glycan array binding signal (z-score),[25],-0.244
same,glycan array binding signal (z-score),[26],-0.227
same,glycan array binding signal (z-score),[27],-0.478
same,glycan array binding signal (z-score),[28],-0.162
same,glycan array binding signal (z-score),[29],0.014
same,glycan array binding signal (z-score),[30],-0.317
same,glycan array binding signal (z-score),[31],0.22
same,glycan array binding signal (z-score),[32],0
